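Step 1: Grow cells in 96-well plates. Step 2: Expose to compound for 48 hours at 5 concentrations. Step 3: Interpolate endpoints linearly; if unreached, use highest concentration. Here, GI50 denotes the concentration required for 50% inhibition of growth.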 The source made the active and inactive calls. No stated cut-off is given here; in the data, active = GI50 up to about 1.1 µM and inactive = higher.
System: NCI-H322M
Assay: growth of human tumour cells (NCI), 48 h

| Compound | GI50 |
| --- | --- |
| O=C(CCc1ccc(O)c(O)c1)NCCc1cc(O)c(O)c(O)c1 | inactive: 32.1 µM |
| CSc1ccc2c(c1)C(N1CCN(C)CC1)Cc1ccccc1S2 (centres undefined) | inactive: 7.94 µM |
| c1ccc2c(c1)c1ccccc1n2Cn1c2ccccc2c2ccccc21 | inactive: > 100 µM |
| COC1=CC23CCCN2CCc2cc4c(cc2C3C1O)OCO4 (centres undefined) | inactive: 65.2 µM |
| CCOC(=O)C(NC(=O)c1ccccc1)(N1CCOCC1)C(F)(F)F (centres undefined) | inactive: > 100 µM |
| O=C(NCCN1CCOCC1)c1cn2c(ccc3sc4ccccc4c(=O)c32)n1 | inactive: 8.11 µM |
| COc1ccc(-n2sc3ncc([N+](=O)[O-])cc3c2=O)cc1 | inactive: > 100 µM |
| COc1cnc2oc3ccc(O)cc3c2c1-c1ccccc1 | inactive: 24.7 µM |
| COc1ccc(/C=C/c2nccc3ccccc23)cc1OC | inactive: > 10 µM |
| CCCCCCCC(CC(=O)NC(CO)C(=O)NC(CO)CC(C)C)OC(=O)CC(CCCCCCC)OC(=O)CC(CCCCCCC)OC1OC(C)C(O)C(OC2OC(C)C(O)C(OC(C)=O)C2O)C1O (centres undefined) | inactive: 13.3 µM |
| CC(=O)/C=C1\CC(=O)Nc2ccccc2N1 | inactive: > 100 µM |
| CCN(CC)Cc1ccccc1CC(=O)N1c2ccccc2C(=O)Nc2cccnc21 | inactive: > 100 µM |
| O=c1c2ccccc2nc(N/N=C/c2ccc(Cl)cc2)n1-c1ccccc1 | inactive: > 100 µM |
| O=C1CC(C(=O)N2CCCCC2)n2c(=O)n(-c3ccccc3)c(=O)n2C1 (centres undefined) | inactive: > 100 µM |
| O=C(O)CCC(C(=O)O)N1C(=O)C2C3CCC(C3)C2C1=O (centres undefined) | inactive: > 100 µM |
| C/C=C/C=N/N(c1nnc(-c2ccccc2)c(-c2ccccc2)n1)S(=O)(=O)c1ccc(C)cc1 | inactive: 19.6 µM |
| O=C(CN1CCCCC1)CC(O)(C(F)(F)F)C(F)(F)F | inactive: > 100 µM |
| Cc1ccc(C)n2c1nc1ccc3ccccc3c12 | inactive: > 100 µM |
| COc1cc2c3c(c1)CCCN3CCC2 | inactive: > 10 µM |
| Cc1ccc(S(=O)(=O)N2CCN(S(=O)(=O)c3ccc(C)cc3)CCN(S(=O)(=O)c3ccc(C)cc3)Cc3cc(C#N)c(C#N)cc3CN(S(=O)(=O)c3ccc(C)cc3)CC2)cc1 | inactive: > 100 µM |
| O=C(/C=C/c1ccco1)CC(=O)/C=C/c1ccco1 | inactive: > 10 µM |
| BrC1=C(Br)C2(SCCS2)[C@H]2C[C@@H]1c1ccccc12 | inactive: 83 µM |

| Compound | GI50 |
| --- | --- |
| COc1ccc2c[n+](C)c3c4cc(OC)c(OC)cc4ccc3c2c1 | inactive: 5.05 µM |
| Nc1ccc(S(=O)(=O)Nc2nc3ccccc3nc2Nc2ccc(S(N)(=O)=O)cc2)cc1 | inactive: 57.7 µM |
| O=c1[nH]nc(Cc2ccccc2)n1O | inactive: > 100 µM |
| Cc1cccc(C)c1NC(=O)CCC/C(CC(=O)c1ccc(F)cc1)=N\NC(=O)C(=O)NN | inactive: > 100 µM |
| COc1cccc2c1-c1c(OC)cccc1SS2 | inactive: 23.9 µM |
| COC(=O)C1=C(O)C(C(=O)OC)[C@]2(O)[C@H](C(=O)OC)[C@H]1C[C@@H](c1ccc(Cl)cc1)[C@H]2C(=O)OC (some centres undefined) | inactive: 6.9 µM |
| c1ccc(-c2c[nH]c(SC(c3ccccc3)c3ccccc3)n2)cc1 | inactive: 23.7 µM |
| CCCCC1Cc2cc(O)ccc2-c2n1c1cc(O)ccc1[n+]2C.CCCCC1Cc2cc(O)ccc2-c2n1c1ccc(O)cc1[n+]2C (centres undefined) | inactive: 61.4 µM |
| CC(C)=CC1CC(C)C2(CCC3(C)CC4C(C(=O)CC4(C)O)/C(C=O)=C\CC32)O1 (centres undefined) | active: 0.432 µM |
| CN1C(=O)N/C(=C\c2ccc(S(=O)(=O)N/N=C/c3ccccc3)cc2)C1=O | inactive: 53.8 µM |
| CC1(C)CC(=O)C(Cc2ccccc2)(Cc2ccccc2)C(=O)C1 | inactive: > 100 µM |
| CC(C)N(C(=O)C12C3C4C1C1C2C3C41C(O)C(C)(C)C)C(C)C (centres undefined) | inactive: > 50 µM |
| CCn1c2ccccc2c2cc(NC(=O)c3c(C)nc(O)nc3NCCNCCO)ccc21 | inactive: > 100 µM |
| CCCCCCCCCCCCCC(=O)OCC(CCS(=O)(=O)O[C@H]1CC[C@@]2(C)C(=CC[C@@H]3C2CC[C@]2(C)C(=O)CCC32)C1)OC(=O)CCCCCCCCCCCCC (some centres undefined) | inactive: > 100 µM |
| N#CC(OC1OC(COC2OC(CO)C(O)C(O)C2O)C(O)C(O)C1O)c1ccccc1 (centres undefined) | inactive: > 225 µM |
| COc1ccc2[nH]c3c(C)c4ccnc(NCCCN(C)CCCN)c4c(C)c3c2c1 | active: 0.243 µM |
| COc1ccc(-c2cc(-c3ccccc3)nc(/N=C\c3ccccc3)n2)c(O)c1 | inactive: 48.3 µM |
| COC(=S)OC1CC(n2cnc3c(N)ncnc32)OC1CO[Si](C)(C)C(C)(C)C (centres undefined) | inactive: 21.3 µM |
| CC12CC3OC(=O)C1COC14OC5(C2C1=O)C(O)(CCC1C4CC(O)C2(O)CC=CC(=O)C12C)C(=O)OC35C (centres undefined) | inactive: > 100 µM |
| CCOC(=O)NC(C(=O)OCC)(N1CCN(c2cc3c(cc2F)c(=O)c(C(=O)O)cn3CC)CC1)C(F)(F)F (centres undefined) | inactive: > 100 µM |
| CC(C)(C)OC(=O)N1C(=O)OC[C@@H]2C=C[C@@H]21 | inactive: > 100 µM |
| CNC(=S)/N=C(\N)N(C)C | inactive: > 100 µM |

— ChEMBL document CHEMBL1201862, “PubChem BioAssay data set” (2004)
